T1: RBFOX1 RRM RbFoxmut (Fox-RRM*) (Homo sapiens, UniProt Q9NWB1 109-208, R118D;E147R;N151S;E152T)
T1 sequence: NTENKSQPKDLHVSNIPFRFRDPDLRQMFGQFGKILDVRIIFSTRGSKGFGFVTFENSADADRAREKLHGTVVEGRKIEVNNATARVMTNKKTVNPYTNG

B1: AUCUUAC (DNA:RNA)
RNA: GGGAGACCGGAAUUCAGAUUGUCCAUCUUACUUAAAUCCCGUCGUAGCCACCA
DNA 1: CAATCTGAATTCCGGTCTCCC
DNA 2: TGGTGGCTACGACGGGATT
B2: GAUUCGA (DNA:RNA)
RNA: B1 RNA with A25G, U26A, C27U, U29C, A30G, C31A
DNA 1: CAATCTGAATTCCGGTCTCCC
DNA 2: TGGTGGCTACGACGGGATT
B3: UUUGAUG (DNA:RNA)
RNA: B1 RNA with A25U, C27U, U28G, U29A, A30U, C31G
DNA 1: CAATCTGAATTCCGGTCTCCC
DNA 2: TGGTGGCTACGACGGGATT
B4: CUAGCUC (DNA:RNA)
RNA: B1 RNA with A25C, C27A, U28G, U29C, A30U
DNA 1: CAATCTGAATTCCGGTCTCCC
DNA 2: TGGTGGCTACGACGGGATT
B5: GCGCAUG (DNA:RNA)
RNA: GGGAGACCGGAAUUCAGAUUGUCCGCGCAUGUUAAAUCCCGUCGUAGCCACCA
DNA 1: CAATCTGAATTCCGGTCTCCC
DNA 2: TGGTGGCTACGACGGGATT
B6: ACUUCAA (DNA:RNA)
RNA: B1 RNA with U26C, C27U, U29C, C31A
DNA 1: CAATCTGAATTCCGGTCTCCC
DNA 2: TGGTGGCTACGACGGGATT
B7: UCCGCCA (DNA:RNA)
RNA: B1 RNA with A25U, U26C, U28G, U29C, A30C, C31A
DNA 1: CAATCTGAATTCCGGTCTCCC
DNA 2: TGGTGGCTACGACGGGATT
B8: GCGAGGA (DNA:RNA)
RNA: B5 RNA with C28A, A29G, U30G, G31A
DNA 1: CAATCTGAATTCCGGTCTCCC
DNA 2: TGGTGGCTACGACGGGATT
B9: GCACUUU (DNA:RNA)
RNA: B5 RNA with G27A, A29U, G31U
DNA 1: CAATCTGAATTCCGGTCTCCC
DNA 2: TGGTGGCTACGACGGGATT
B10: AGGAGGU (DNA:RNA)
RNA: B1 RNA with U26G, C27G, U28A, U29G, A30G, C31U
DNA 1: CAATCTGAATTCCGGTCTCCC
DNA 2: TGGTGGCTACGACGGGATT
B11: UGCGAAU (DNA:RNA)
RNA: B1 RNA with A25U, U26G, U28G, U29A, C31U
DNA 1: CAATCTGAATTCCGGTCTCCC
DNA 2: TGGTGGCTACGACGGGATT
B12: AGUCAUU (DNA:RNA)
RNA: B5 RNA with G25A, C26G, G27U, G31U
DNA 1: CAATCTGAATTCCGGTCTCCC
DNA 2: TGGTGGCTACGACGGGATT
B13: AACUCAG (DNA:RNA)
RNA: B1 RNA with U26A, U29C, C31G
DNA 1: CAATCTGAATTCCGGTCTCCC
DNA 2: TGGTGGCTACGACGGGATT
B14: AAUGCGC (DNA:RNA)
RNA: B1 RNA with U26A, C27U, U28G, U29C, A30G
DNA 1: CAATCTGAATTCCGGTCTCCC
DNA 2: TGGTGGCTACGACGGGATT
B15: UUCGAUC (DNA:RNA)
RNA: B1 RNA with A25U, U28G, U29A, A30U
DNA 1: CAATCTGAATTCCGGTCTCCC
DNA 2: TGGTGGCTACGACGGGATT
B16: CUAGACU (DNA:RNA)
RNA: B1 RNA with A25C, C27A, U28G, U29A, A30C, C31U
DNA 1: CAATCTGAATTCCGGTCTCCC
DNA 2: TGGTGGCTACGACGGGATT
B17: GUCUUCA (DNA:RNA)
RNA: B1 RNA with A25G, A30C, C31A
DNA 1: CAATCTGAATTCCGGTCTCCC
DNA 2: TGGTGGCTACGACGGGATT
B18: GACGGGC (DNA:RNA)
RNA: B1 RNA with A25G, U26A, U28G, U29G, A30G
DNA 1: CAATCTGAATTCCGGTCTCCC
DNA 2: TGGTGGCTACGACGGGATT
B19: CCGCUUU (DNA:RNA)
RNA: B5 RNA with G25C, A29U, G31U
DNA 1: CAATCTGAATTCCGGTCTCCC
DNA 2: TGGTGGCTACGACGGGATT
B20: ACGGGUC (DNA:RNA)
RNA: B5 RNA with G25A, C28G, A29G, G31C
DNA 1: CAATCTGAATTCCGGTCTCCC
DNA 2: TGGTGGCTACGACGGGATT
B21: GGAGCCC (DNA:RNA)
RNA: B1 RNA with A25G, U26G, C27A, U28G, U29C, A30C
DNA 1: CAATCTGAATTCCGGTCTCCC
DNA 2: TGGTGGCTACGACGGGATT
B22: CCGACUC (DNA:RNA)
RNA: B5 RNA with G25C, C28A, A29C, G31C
DNA 1: CAATCTGAATTCCGGTCTCCC
DNA 2: TGGTGGCTACGACGGGATT
B23: UCACCCG (DNA:RNA)
RNA: B5 RNA with G25U, G27A, A29C, U30C
DNA 1: CAATCTGAATTCCGGTCTCCC
DNA 2: TGGTGGCTACGACGGGATT
B24: ACGCAGC (DNA:RNA)
RNA: B5 RNA with G25A, U30G, G31C
DNA 1: CAATCTGAATTCCGGTCTCCC
DNA 2: TGGTGGCTACGACGGGATT
B25: CAUGUUG (DNA:RNA)
RNA: B5 RNA with G25C, C26A, G27U, C28G, A29U
DNA 1: CAATCTGAATTCCGGTCTCCC
DNA 2: TGGTGGCTACGACGGGATT
B26: UUACAAG (DNA:RNA)
RNA: B5 RNA with G25U, C26U, G27A, U30A
DNA 1: CAATCTGAATTCCGGTCTCCC
DNA 2: TGGTGGCTACGACGGGATT
B27: CCAGGAC (DNA:RNA)
RNA: B1 RNA with A25C, U26C, C27A, U28G, U29G
DNA 1: CAATCTGAATTCCGGTCTCCC
DNA 2: TGGTGGCTACGACGGGATT
B28: GCUCUUA (DNA:RNA)
RNA: B5 RNA with G27U, A29U, G31A
DNA 1: CAATCTGAATTCCGGTCTCCC
DNA 2: TGGTGGCTACGACGGGATT
B29: UAGAACA (DNA:RNA)
RNA: B5 RNA with G25U, C26A, C28A, U30C, G31A
DNA 1: CAATCTGAATTCCGGTCTCCC
DNA 2: TGGTGGCTACGACGGGATT
B30: UCCCCAU (DNA:RNA)
RNA: B1 RNA with A25U, U26C, U28C, U29C, C31U
DNA 1: CAATCTGAATTCCGGTCTCCC
DNA 2: TGGTGGCTACGACGGGATT
B31: CUCCGUG (DNA:RNA)
RNA: B5 RNA with G25C, C26U, G27C, A29G
DNA 1: CAATCTGAATTCCGGTCTCCC
DNA 2: TGGTGGCTACGACGGGATT

Data on 31 molecules can be found in article PMC9911399, “Two distinct binding modes provide the RNA-binding protein RbFox with extraordinary sequence specificity”.

Residue numbers refer to the chain shown, from its start. This is one part of the list.

This assay concerns the target T1, RBFOX1 RRM RbFoxmut (Fox-RRM*). Description: EMSA; HiTS-Eq, 1 nM pool, 10 min; buffer printed only for the single-RNA assays: 10 mM Tris pH 7.5, 150 mM NaCl, 3.4 mM EDTA, 0.001% NP-40, 30 C. As to conditions: tags: His6 N-terminal (pET28a); label: 5' 32P. Summed up:
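Purified RbFox RRM, wild type or mutant, was incubated for 10 min in 50 µL with 1 nM of a 5′-radiolabelled RNA pool carrying 7 randomized nucleotides, whose flanks were annealed to DNA oligonucleotides, over a series of increasing protein concentrations. Unbound RNA was resolved on 8% native PAGE, cut out, reverse-transcribed, barcoded by PCR and sequenced on an Illumina HiSeq 2500. Relative association constants were derived from changes in read counts for each RNA species versus the control reaction and normalised to the cognate motif.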
With B1, the binding signal was 0.12 KA relative to UGCAUGU.

B2: the binding signal is 0.167 KA relative to UGCAUGU.

With B3, the binding signal is 0.125 KA relative to UGCAUGU.

Consider B4, for which the binding signal is 0.0876 KA relative to UGCAUGU.

With B5, the binding signal was 1.33 KA relative to UGCAUGU.

B6: the binding signal is 0.0738 KA relative to UGCAUGU.

Regarding B7, the binding signal was 0.0799 KA relative to UGCAUGU.

Take B8: the binding signal was 0.0692 KA relative to UGCAUGU.

For B9, the binding signal was 0.0764 KA relative to UGCAUGU.

Consider B10, for which the binding signal was 0.121 KA relative to UGCAUGU.

In the case of B11, the binding signal is 0.115 KA relative to UGCAUGU.

Turning to B12, the binding signal was 0.0793 KA relative to UGCAUGU.

With B13, the binding signal is 0.0765 KA relative to UGCAUGU.

On to B14, for which the binding signal is 0.0945 KA relative to UGCAUGU.

As for B15, the binding signal is 0.0569 KA relative to UGCAUGU.

As for B16, the binding signal is 0.0561 KA relative to UGCAUGU.

Turning to B17, the binding signal was 0.203 KA relative to UGCAUGU.

In the case of B18, the binding signal is 0.0747 KA relative to UGCAUGU.

Consider B19, for which the binding signal is 0.0941 KA relative to UGCAUGU.

B20: the binding signal was 0.153 KA relative to UGCAUGU.

Consider B21, for which the binding signal was 0.0675 KA relative to UGCAUGU.

For B22, the binding signal is 0.0824 KA relative to UGCAUGU.

On to B23, for which the binding signal was 0.104 KA relative to UGCAUGU.

On to B24, for which the binding signal is 0.0928 KA relative to UGCAUGU.

As for B25, the binding signal is 0.15 KA relative to UGCAUGU.

For the molecule B26, the binding signal is 0.0498 KA relative to UGCAUGU.

In the case of B27, the binding signal is 0.0683 KA relative to UGCAUGU.

With B28, the binding signal is 0.0731 KA relative to UGCAUGU.

For the molecule B29, the binding signal was 0.0442 KA relative to UGCAUGU.

In the case of B30, the binding signal is 0.0866 KA relative to UGCAUGU.

Turning to B31, the binding signal is 0.105 KA relative to UGCAUGU.
